Reference: the RNAGym collection of RNA variant scans (doi:10.1073/pnas.2313332121)
Variants at the background level are over-represented here.

B1: TPR 5TU (parent)
chain: GGAUCUUCUCGAUCUAACAAAAAAGACAAAUCUGCCACAAAGCUUGAGAGCAUCUUCGGAUGCAGAGGCGGCAGCCUUCGGUGGCGCGAUAGCGCCAACGUUCUCAACUAUGACACGCAAAACGCGUGCUCCGUUGAAUGGAGUUUAUCAUG

Variants of: B1
Experiment: polymerase ribozyme fitness, log enrichment relative to wild type (log ratio); higher = more active; in vitro selection for triplet polymerase activity
Outline: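 To select mutant libraries of each subunit of a heterodimeric triplet polymerase ribozyme, built by PCR and transcribed, each was annealed with a biotinylated primer, partner subunit and triplets, then incubated frozen at −7 °C. Extended constructs were gel-excised, captured on streptavidin beads and amplified by RT-PCR, in one round carried out in triplicate. Illumina sequencing of input and output libraries kept genotypes with ≥10 input reads and ≥1 read per output. Fitness is the base-2 logarithm of genotype enrichment relative to wild-type enrichment, from inverse-variance-weighted replicate averages.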

Variant	polymerase ribozyme fitness (log ratio)
U31C G50A C96G	-0.777
U31C G80C U144A	≤ -4.2
U31C U44A G50A A97C U102G A113C	≤ -4.2
U31C U44A G62U C95U	≤ -4.2
U31C U45G G86U A150C	≤ -4.2
U31C U53A G74C G83A A91C C149G	≤ -4.2
U31C U53G	-0.735
U31C U101C G124A	1.05
U31G A37C U44G G48U C69U G71A G94A A113G C114U U151C	≤ -4.2
U31G A37C U82A G84C C87A C99G	≤ -4.2
U31G A37G A41U U82A	≤ -4.2
U31G A37G G58U A64U C69U C99U G117A	≤ -4.2
U31G A37U A41C C75U C76G C96U C105U G117U G133U U134C	≤ -4.2
U31G A47C U56A C76U U90G C95A U101G	≤ -4.2
U31G A49C C57G C75G C79U C85G G88C U111G	≤ -4.2
U31G A52C C54A	≤ -4.2
U31G A89C C95G C99A	≤ -4.2
U31G C32A U139A	≤ -4.2
U31G C32U C57A G59C G100A G141A	≤ -4.2
U31G C35A G42A	≤ -4.2
U31G C35U G62C C108A G133C	≤ -4.2
U31G C51A U90G A97U	≤ -4.2
U31G C54U G59C C103G U130C	≤ -4.2
U31G C95G C103A C105G	≤ -4.2

Variant	polymerase ribozyme fitness (log ratio)
U31G C99U C116U A137G	-1.84
U31G C116G U144C	-4.03
U31G C123G A142G	-1.12
U31G G42C G59C C79A G94A A98G A115G	≤ -4.2
U31G G48C A49U C51U C69U G84C U127C	≤ -4.2
U31G G48C C54G U61A G86A G92A A115U G117U C118A	≤ -4.2
U31G G50A C87A U135A	≤ -4.2
U31G G50U U61A C85A C103G G152U	≤ -4.2
U31G G65A C96U G112C A115G U144A	≤ -4.2
U31G G65U	≤ -4.2
U31G G68C C75A	≤ -4.2
U31G G83U G126C	-0.857
U31G G92C U109A G143C	≤ -4.2
U31G U33G G62C C93U	≤ -4.2
U31G U44A G84C C85A C125U	≤ -4.2
U31G U44G G62A C63U G81A	≤ -4.2
U31G U55G G83U G100A U135G G136A U146A	≤ -4.2
U31G U56A G80C C87G C99G	≤ -4.2
U31G U61G A91G U144A	≤ -4.2
U31G U61G C93A C123G G126U U139C U148C	≤ -4.2
C32A A41C A66C C95U C99G G117U A150C	≤ -4.2
C32A A47G C54A C93A U135A	≤ -4.2
C32A A49C G83U A91G C114U A121G	≤ -4.2
C32A A89C C95A	≤ -4.2

Variant	polymerase ribozyme fitness (log ratio)
C32A C35U C57G G62A U90C C103G C116U C149U	≤ -4.2
C32A C43U U53A U77G U151G	≤ -4.2
C32A C69U C85G C87U	≤ -4.2
C32A C75G G92A A150U	≤ -4.2
C32A C87A C93U	≤ -4.2
C32A G58C A64U C85G	≤ -4.2
C32A G59A C69U C75U U111G	≤ -4.2
C32A G59C C79G	≤ -4.2
C32A G74C G81C G94A A121U	-4.03
C32A G84A	-3.57
C32A G84U A97G C131U U139C	≤ -4.2
C32A G88C G141C	≤ -4.2
C32A G88U C93A C149A	≤ -4.2
C32A G140U	≤ -4.2
C32A U33C G50C G59A C72A G83C C103A	≤ -4.2
C32A U55A U61G A73G G94C U104G	≤ -4.2
C32G A37U G59A G83U C87U	≤ -4.2
C32G A40C C54G U77C A138G	≤ -4.2
C32G A40G G50A A52C C75G C93U A121G	≤ -4.2
C32G A47C C96U U101G C108G	≤ -4.2
C32G A47C G74C C116U C132A A138U	≤ -4.2
C32G A49C C118U	≤ -4.2
C32G A49C U56A C85A A98G A113U U145A	≤ -4.2
C32G A49U G74U U77G A89U	≤ -4.2

Variant	polymerase ribozyme fitness (log ratio)
C32G A52C U61A G62C C63A C75U C93U	-4.14
C32G A52U C57A U144G U146C	≤ -4.2
C32G A73G C85U A138U G141A	≤ -4.2
C32G A107U U139C	≤ -4.2
C32G C35A A73U C85A G88C A106U G143A	≤ -4.2
C32G C35A G48C A73U	≤ -4.2
C32G C36U U61G C72G C87G C95U A97U C99A G140A	≤ -4.2
C32G C43U C93A A107G	≤ -4.2
C32G C54U C79A C129U U148C A150C	≤ -4.2
C32G C57G A66U C87U U109G	≤ -4.2
C32G C57U C95U A142C U144G	≤ -4.2
C32G C75A G84C	≤ -4.2
C32G C79A C93G A98G A106C U109C	≤ -4.2
C32G C105U	≤ -4.2
C32G C116U A119U A142G U146A	≤ -4.2
C32G C149G	≤ -4.2
C32G G34A U44G G80U C116U C118G	≤ -4.2
C32G G34A U55A C96G C125U A138G	≤ -4.2
C32G G42A A47C U53A U61C A115G	≤ -4.2
C32G G42C G88C A106C C123U U144A	≤ -4.2
C32G G48C C51U G59A C72U G88A G126U	≤ -4.2
C32G G48U G68A U134A U145C	≤ -4.2
C32G G50A C51A U56A C57U A97U G126U U148A	≤ -4.2
C32G G50C C79A G86U G143U	≤ -4.2

Variant	polymerase ribozyme fitness (log ratio)
C32G G58U G84U C149A	≤ -4.2
C32G G59A A91C C96U A115C G141U	≤ -4.2
C32G G59C G71C C85A G88A U151A	≤ -4.2
C32G G62C C63A G71C U82A C95G C114U C116A G136C	≤ -4.2
C32G G65A G71C U78A U134C	≤ -4.2
C32G G70U U82G G94A A110U G136A	≤ -4.2
C32G G80A G92U C95A U102C G124A	≤ -4.2
C32G G80U U111A	≤ -4.2
C32G G88A	≤ -4.2
C32G G124A U135A	≤ -4.2
C32G U33G	≤ -4.2
C32G U44A G65A C85G	≤ -4.2
C32G U44G A66G C116U C118G A138G U144C	≤ -4.2
C32G U45G U56A G58A A73G G88A C116U G136U	≤ -4.2
C32G U53A C57U C76G C108G A138C	≤ -4.2
C32G U55G C72A G83A G94U G126U U146A	≤ -4.2
C32G U56A C87A G92A C96U C132A G141U A150U	≤ -4.2
C32G U56A G94A C108U G124C U145A	≤ -4.2
C32G U56G A120G U148A	≤ -4.2
C32G U61A A66C G74A C76U A115G	≤ -4.2
C32G U77A C85A G112U U135G G143A	≤ -4.2
C32G U78C G81U C85G C116G C118A	≤ -4.2
C32G U90A	≤ -4.2
C32U A39C A60C A66U G71A U134A	≤ -4.2

Variant	polymerase ribozyme fitness (log ratio)
C32U A39C C72G G84U U102A C123U	≤ -4.2
C32U A39G A40C C54A G94U A142U	≤ -4.2
C32U A39U A73U G94U G140A A150G	≤ -4.2
C32U A40C U78A C79A C87G	≤ -4.2
C32U A40U U56C C85U U90A C114U	-4.06
C32U A41C G46A U56A C87A G140A	≤ -4.2
C32U A41U G59C A89C G92A A147C	≤ -4.2
C32U A47G G59C G100A	≤ -4.2
C32U A49C U55A G81A C85U U90A A106U A121U C125A	≤ -4.2
C32U A52G U77G A97C U144A	≤ -4.2
C32U A66U G68C G94U C149A	≤ -4.2
C32U A147C	-2.55
C32U C35G A89G C105G A110U	≤ -4.2
C32U C36U U45A A60U G88A G126A	≤ -4.2
C32U C38U U109G	≤ -4.2
C32U C54A C85A G88A A137U	≤ -4.2
C32U C54U C95U C105G U127A U134A U139G	≤ -4.2
C32U C57G G80A	≤ -4.2
C32U C85A C99G G133C U139G	≤ -4.2
C32U C93A	-4.11
C32U C96G A142U	-3.35
C32U G42U U55G	≤ -4.2
C32U G46A A60U G83C C96A G141A	≤ -4.2
C32U G46C G136A A150U	≤ -4.2

Variant	polymerase ribozyme fitness (log ratio)
C32U G50A A52G G58A C87G C118G	≤ -4.2
C32U G59A G74U G83C G86A C87U	≤ -4.2
C32U G62A C76G G84U C116U G140A C149U	≤ -4.2
C32U G67C C76U U82A A98U C118U	≤ -4.2
C32U G71C C103G A113G A121G U134C	≤ -4.2
C32U G81C G92U U134A G136C	≤ -4.2
C32U G81U A107U C125U	≤ -4.2
C32U G84A	-2.55
C32U G86C C87G C95G C149U	≤ -4.2
C32U U33A G50C A52U C54A G81C	≤ -4.2
C32U U55G U61C G84U G100C	≤ -4.2
C32U U61A G94C C105U A107U A110U	≤ -4.2
C32U U61C	-3.52
C32U U90C C93G C108G U144C	≤ -4.2
C32U U90G	≤ -4.2
C32U U101A	-3.76
C32U U148G	≤ -4.2
U33A A41G A47C C96A G140A	≤ -4.2
U33A A60C U104A C123G	≤ -4.2
U33A A91G	≤ -4.2
U33A A142C C149A	≤ -4.2
U33A C36G G59A A91G G94U C129G	≤ -4.2
U33A C38A U55G C95U C118G	≤ -4.2
